Source: the GPR68 mutational scans of Howard et al. (2025)

B1: GPR68, Q15743 (parent)
chain: MGNITADNSSMSCTIDHTIHQTLAPVVYVTVLVVGFPANCLSLYFGYLQIKARNELGVYLCNLTVADLFYICSLPFWLQYVLQHDNWSHGDLSCQVCGILLYENIYISVGFLCCISVDRYLAVAHPFRFHQFRTLKAAVGVSVVIWAKELLTSIYFLMHEEVIEDENQHRVCFEHYPIQAWQRAINYYRFLVGFLFPICLLLASYQGILRAVRRSHGTQKSRKDQIQRLVLSTVVIFLACFLPYHVLLLVRSVWEASCDFAKGVFNAYHFSLLLTSFNCVADPVLYCFVSETTHRDLARLRGACLAFLTCSRTGRAREAYPLGAPEASGKSGAQGEEPELLTKLHPAFQTPNSPGSGGFPTGRLA

Assays:
[1] = variants of: B1; assay: cAMP reporter score (Enrich2 score, wild type = 0); higher = more signal; HEK293T, FACS bins
[2] = variants of: B1; assay: surface expression score (Enrich2 score, wild type = 0); higher = more signal; HEK293T, FACS bins

Variant	cAMP reporter score ([1]; pH 5.5)	cAMP reporter score ([1]; pH 6)	cAMP reporter score ([1]; pH 6, modulator: ogerin)	cAMP reporter score ([1]; pH 6.5, modulator: ogerin)	surface expression score [2]
S12N	-0.205	-0.478	-0.488	0.016	0.028
S12P	-0.036	-0.693	-0.254	0.016	-0.042
S12Q	0.547	-0.575	0.547	0.269	1.56
S12R	0.228	-0.046	0.695	1.02	0.785
S12T	0.794	1.5	-0.076	0.408	0.924
S12V	1.42	0.554	1.7	1.64	1.29
S12W	1.9	2.63	2.15	4.37	2.36
S12Y	0.584	1.96	1.11	1.65	0.755
S12_C13del	-1.29	-0.883	-0.696	-0.752	-1.56
T14_I15insG	-0.504	–	-0.311	1.95	-1.29
I15A	0.932	-0.71	0.492	-0.251	0.342
I15C	-0.401	0.103	-0.525	-0.212	-1.1
I15D	-1.3	-0.389	-1.01	-0.897	-1.51
I15E	-1.81	-0.778	-2.03	-1.35	-1.22
I15F	-1.77	-1.27	-1.16	-1.19	0.86
I15G	-0.781	0.006	-1.6	-0.809	-0.688
I15H	-0.815	-1.43	-0.839	-0.678	1.47
I15K	-0.664	-0.563	-1.06	-0.974	-0.739
I15L	-1.02	0.03	-0.989	-0.47	0.096
I15M	-0.308	-0.722	-0.348	-1.26	-0.053
I15N	-0.584	-0.203	-0.704	-1.21	0.275

Variant	cAMP reporter score ([1]; pH 5.5)	cAMP reporter score ([1]; pH 6)	cAMP reporter score ([1]; pH 6, modulator: ogerin)	cAMP reporter score ([1]; pH 6.5, modulator: ogerin)	surface expression score [2]
I15P	0.354	3.62	0.526	2.9	-0.348
I15Q	-0.376	-0.457	-0.479	-0.879	-0.581
I15R	0.052	-0.391	-0.623	-0.544	-0.389
I15S	-0.303	-0.774	0.253	0.142	-0.096
I15T	0.135	-0.532	-0.253	-0.463	-0.431
I15V	-0.337	–	-0.132	1.67	-0.877
I15W	-0.682	-0.172	-0.606	-0.346	0.135
I15Y	-0.592	-0.553	-0.816	-0.243	0.382
I15del	-1.27	-1.06	-1.45	-0.948	-1.56
D16_H17insGSG	-0.149	-0.008	0.619	-0.075	-0.352
D16_T18del	-1.12	-0.528	-1.03	-1.02	-1.45
H17A	-0.309	–	-0.424	-0.944	0.042
H17C	-0.048	-0.444	-0.626	-0.787	-0.715
H17D	-0.365	-0.653	-1.73	-1.41	-0.494
H17E	-0.984	-1.66	-1.88	-1.06	-0.651
H17F	-0.754	-1.47	-1.17	-0.502	1.34
H17G	-0.173	-1.17	-1.31	-0.818	0.238
H17I	0.058	-1.02	0.257	-0.516	0.429
H17K	0.482	1.22	0.945	2.18	1.22
H17L	-0.508	-0.84	-0.962	-0.923	0.016
H17M	-0.51	-0.401	-0.718	-0.895	0.264

Variant	cAMP reporter score ([1]; pH 5.5)	cAMP reporter score ([1]; pH 6)	cAMP reporter score ([1]; pH 6, modulator: ogerin)	cAMP reporter score ([1]; pH 6.5, modulator: ogerin)	surface expression score [2]
H17N	-0.174	-0.556	-0.446	-0.567	0.31
H17P	1.34	-0.274	-0.326	0.238	0.183
H17Q	-0.04	-0.846	-0.802	-0.932	-0.2
H17R	0.466	-0.44	0.512	0.166	0.69
H17S	0.541	-1	0.801	0.05	1.31
H17T	0.921	0.287	1.4	0.517	1.45
H17V	-0.138	-0.474	-0.341	-1.03	0.306
H17W	-0.385	-0.45	-0.251	-0.478	1.49
H17Y	0.273	-0.436	0.045	-0.447	1.1
T18_I19insGS	-0.18	0.784	0.494	1.5	0.394
T18_I19insGSG	0.277	0.227	0.541	-0.367	-0.294
I19_Q21del	-0.3	-0.609	-1.63	-0.467	-1.73
Q21_T22del	-1.29	-1.07	-1.78	-0.55	-0.478
Q21del	-1.19	-0.778	-0.711	-0.801	0.458
T22A	0.078	-0.665	-0.534	-1.04	-0.679
T22C	-0.599	-0.931	-1.25	-0.434	-0.064
T22D	-0.469	–	-0.138	-0.015	-1.55
T22E	-0.399	-1.64	-0.122	–	-0.42
T22F	1.02	0.103	0.904	0.697	2.37

Scores whose standard error is large were omitted. The source holds two more conditions with little spread; they are left out. Names with del lack the residues named; names with ins carry added residues between the positions named. For part of these data: The concentration of ogerin is not given here.
